Measured values from paper PMC9911399, “Two distinct binding modes provide the RNA-binding protein RbFox with extraordinary sequence specificity”.
Positions count from the first letter of the chain named. The list shows a part of the results.

T1: RBFOX1 RRM (Homo sapiens, UniProt Q9NWB1 109-208)
T1 sequence: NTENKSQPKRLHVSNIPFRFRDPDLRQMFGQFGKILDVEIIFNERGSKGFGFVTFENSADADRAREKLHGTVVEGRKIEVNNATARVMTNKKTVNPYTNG

B1: UUAACCG (DNA:RNA)
RNA: GGGAGACCGGAAUUCAGAUUGUCCUUAACCGUUAAAUCCCGUCGUAGCCACCA
DNA 1: CAATCTGAATTCCGGTCTCCC
DNA 2: TGGTGGCTACGACGGGATT
B2: AUCCAAC (DNA:RNA)
RNA: B1 RNA with U25A, A27C, A28C, C29A, C30A, G31C
DNA 1: CAATCTGAATTCCGGTCTCCC
DNA 2: TGGTGGCTACGACGGGATT
B3: GCGCCUA (DNA:RNA)
RNA: B1 RNA with U25G, U26C, A27G, A28C, C30U, G31A
DNA 1: CAATCTGAATTCCGGTCTCCC
DNA 2: TGGTGGCTACGACGGGATT
B4: UUGUUAU (DNA:RNA)
RNA: B1 RNA with A27G, A28U, C29U, C30A, G31U
DNA 1: CAATCTGAATTCCGGTCTCCC
DNA 2: TGGTGGCTACGACGGGATT
B5: AUGUUGC (DNA:RNA)
RNA: B1 RNA with U25A, A27G, A28U, C29U, C30G, G31C
DNA 1: CAATCTGAATTCCGGTCTCCC
DNA 2: TGGTGGCTACGACGGGATT
B6: UGGUACA (DNA:RNA)
RNA: B1 RNA with U26G, A27G, A28U, C29A, G31A
DNA 1: CAATCTGAATTCCGGTCTCCC
DNA 2: TGGTGGCTACGACGGGATT
B7: UGUUCAU (DNA:RNA)
RNA: B1 RNA with U26G, A27U, A28U, C30A, G31U
DNA 1: CAATCTGAATTCCGGTCTCCC
DNA 2: TGGTGGCTACGACGGGATT
B8: CAGUACG (DNA:RNA)
RNA: B1 RNA with U25C, U26A, A27G, A28U, C29A
DNA 1: CAATCTGAATTCCGGTCTCCC
DNA 2: TGGTGGCTACGACGGGATT
B9: AACGCAU (DNA:RNA)
RNA: B1 RNA with U25A, U26A, A27C, A28G, C30A, G31U
DNA 1: CAATCTGAATTCCGGTCTCCC
DNA 2: TGGTGGCTACGACGGGATT

Each binder was assayed against T1, RBFOX1 RRM (assay: EMSA; HiTS-Eq, 1 nM pool, 10 min; buffer printed only for the single-RNA assays: 10 mM Tris pH 7.5, 150 mM NaCl, 3.4 mM EDTA, 0.001% NP-40, 30 C). Conditions: tags: His6 N-terminal (pET28a); label: 5' 32P.
Procedure, shortened: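 Relative association constants, normalised to the cognate motif, were derived by comparing read counts of each RNA species with those of the control reaction. The RNA sequenced was the free fraction, separated by 8% native PAGE after a 10 min equilibration in 50 µL of 1 nM 5′-radiolabelled RNA (7 randomized nucleotides) with increasing concentrations of purified wild-type or mutant RbFox RRM.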

Binder	binding signal
B1	0.00433 KA relative to UGCAUGU
B2	0.000294 KA relative to UGCAUGU
B3	0.00779 KA relative to UGCAUGU
B4	0.0102 KA relative to UGCAUGU
B5	0.013 KA relative to UGCAUGU
B6	0.00863 KA relative to UGCAUGU
B7	0.0159 KA relative to UGCAUGU
B8	0.0115 KA relative to UGCAUGU
B9	0.00483 KA relative to UGCAUGU
